From PubChem BioAssay AID1794842 (National Center for Advancing Translational Sciences (NCATS), 2023)
Out of some 2,800 compounds screened, fewer than 10 were called active. Calls follow the shape of the dose curve; as a rule, active = well fitted curve in the direction sought with a large enough effect; inconclusive = small, poorly fitted or top-dose-only effect, or another doubt; inactive = no such curve, though single readings can be large or run the other way. Some of the results follow.

Biological target: Metallo-beta-lactamase type 2 (Klebsiella pneumoniae) (UniProt C7C422)
Assay: qHTS to identify inhibitors of the New Delhi Metallo-beta-lactamase (NDM): Meropenem screen against the machine-based learning selections. Also: % of control where 0% means no effect.
Conditions: Purified NDM-1, meropenem hydrolysis, absorbance 300 nm; at 38.4 µM (top of the series) unless noted
In short: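 NDM-1 (2 nM final) in 50 mM HEPES pH 7.0, 1 uM Zn2SO4, 0.01% Tween20 was preincubated with compounds for >30 min. Nitrocefin (16.7 uM final) was read at 485 nm after 15 min, and meropenem (50 uM final) at 300 nm after 30 min.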

Chain of UniProt C7C422 (C7C422 whole entry, looked up): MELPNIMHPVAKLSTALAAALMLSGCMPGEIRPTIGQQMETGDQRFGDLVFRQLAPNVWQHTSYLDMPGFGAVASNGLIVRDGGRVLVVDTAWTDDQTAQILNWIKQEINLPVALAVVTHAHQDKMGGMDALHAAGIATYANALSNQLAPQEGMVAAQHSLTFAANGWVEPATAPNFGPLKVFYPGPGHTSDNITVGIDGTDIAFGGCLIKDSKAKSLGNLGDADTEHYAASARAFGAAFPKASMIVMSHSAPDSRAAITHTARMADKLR

Structure (SMILES) | activity change, negative = inhibition
Cc1ccc(-c2nnc([C@H]3CCN(Cc4ccc(CO)o4)C3)o2)cc1 | inactive: 0.841% [at 57.5 µM]
C[C@@H](NC(=O)C1CC1)c1onc(-c2ccc(F)cc2)c1C(=O)O | inactive: 2.28% [at 57.5 µM]
CC(C)CCCC(=O)N1C[C@@H](C(=O)O)C[C@@H](C(=O)NCc2ccncc2)C1 | inactive: 0.381%
CC(C)(O)CCc1cccc(C(=O)NCCNc2cccnc2)c1 | inactive: 6.29%
CCc1ncc(C(=O)Nc2nn(CC(F)(F)F)c3cc(OC(C)C)ccc23)cn1 | inactive: 7.84%
O=C(Nc1cccc(C(F)(F)F)c1)N[C@@H]1C[C@H](CO)[C@@H](O)[C@H]1O | inactive: 0.574% [at 57.5 µM]
CC(C)CCNC(=O)c1cc(-c2ccncc2)cn1C | inactive: 8.6%
O=c1ncn(Cc2ccccc2)c2ccc(-c3ccc(O)c(F)c3)nc12 | inactive: 7.75% [at 57.5 µM]
C[C@H](O)c1c(-c2ccc(Cl)cc2)noc1C(=O)NC1CC1 | inactive: -0.975% [at 57.5 µM]
CN(C)Cc1nnc(C2CC(NC(=O)Cc3c(F)cccc3Cl)C2)n1C (configuration not stated) | inactive: 50.9%
Cn1cc(C(NC(=O)c2ccc3c(c2)ncn3CCO)C2CC(O)C2)cn1 (configuration not stated) | inactive: 0.34%
COc1ccc(NC(=O)Cc2c[nH]c3ncc(-c4ccccc4)cc23)cn1 | inactive: 2.95% [at 57.5 µM]
COc1ccc(C(=O)N2CC[C@@H](CC(=O)O)[C@@H](CCN3CCN(c4ccccn4)CC3)C2)cc1 | inactive: 19.3%
O=C(Cc1c[nH]c2ncc(-c3ccsc3)cc12)NCc1cccnc1 | inactive: -0.817% [at 57.5 µM]
O=C(Nc1ccc(F)c(Cl)c1)N1CCCC(Cn2c(C3CC3)nc3cccnc32)C1 (configuration not stated) | inactive: 0.164%
COC[C@H]1CCCN1C(=O)CC[C@H]1CNC(=O)[C@@H]2[C@@H](CCN2Cc2cccs2)N1C | inactive: 0.397% [at 57.5 µM]
COCCC(=O)NCC12CCC=C1N(CC1CC1)C(=O)CC2 (configuration not stated) | inactive: 3.99%
NC(=O)c1cccc(-c2n[nH]c3c2CC(=O)N(Cc2ccccc2)C3)c1 | inactive: 2.77% [at 57.5 µM]
Cc1nnnn1Cc1ccc(C(=O)N2CCc3nc(-c4cn[nH]c4)[nH]c3C2)cc1 | inactive: 1.87%
O=C(NCc1nnc2ccc(-c3ccccc3)nn12)c1cc(F)ccc1Cl | inactive: 0.0548%
O=C1Nc2cc(Cl)ccc2C(=O)N2CCN(C(=O)c3ccccc3)C[C@H]12 | inactive: -2.45% [at 57.5 µM]
NCCn1cc(C(=O)N2CCCC(c3[nH]ncc3Cc3ccccc3)C2)nn1 (configuration not stated) | inactive: 35.9%
COc1cccc(Nc2cc3[nH]ccc3c(C(=O)NCc3c(C)cc(C)[nH]c3=O)n2)c1 | inactive: 19.1% [at 57.5 µM]
CSc1ncccc1C(=O)NC1CCCN(CCCc2ccccc2)C1 (configuration not stated) | inactive: 0.314%
COCC(=O)Nc1ccc([C@@H](O)[C@H]2COCC(=O)N2Cc2ccccc2F)cc1 | inactive: -0.201% [at 57.5 µM]
Nc1nc(C2CC(O)C2)cc(N2CCC(O)(Cn3ccnc3)CC2)n1 (configuration not stated) | inactive: 2.82%

Structure (SMILES) | activity change, negative = inhibition
O[C@H]1[C@H](NCc2ccc(-c3ccccc3)cc2)[C@H]2CO[C@H](O2)[C@@H]1Oc1ccccc1 | inactive: -0.362% [at 57.5 µM]
CCCC(C)N1CC2(CCN(C(=O)c3cnn4c3CCCC4)CC2)OC1=O (configuration not stated) | inactive: 1.32%
COc1nc2c(cc1CNC(=O)C1CCOC1)C(=O)N(CCc1ccccn1)C2 (configuration not stated) | inactive: 3.61%
Cc1cc(C)n(C2CCN(c3ncnc4c3c(C)nn4C)C2)n1 (configuration not stated) | inactive: -0.52%
N[C@@H]1CCN(Cc2ccccc2OCc2ccc(Cl)cc2)C[C@H]1O | inactive: 1.17%
COC(=O)[C@@H]1Cc2ncn(C(C)C)c2CN1S(=O)(=O)c1ccc(OC)cc1 | inactive: 8.07% [at 57.5 µM]
O=C(O)CCC(=O)N[C@H]1CCN2C(=O)c3cc(-c4ccc(Cl)cc4)ccc3NC(=O)[C@H]12 | inactive: 12.6% [at 57.5 µM]
O=C(O)CCn1ncc2cc(OCc3ccc(-c4cncnc4)cc3)ccc21 | inactive: 7.69% [at 57.5 µM]
COc1ccc(Nc2cc3c(cn2)CN(CCc2ccccc2)CCN3)cn1 | inactive: 1.3% [at 57.5 µM]
CN(C)Cc1cc(-c2nccn2CC2(CO)CCCC2)ccc1O | inactive: -2.01%
CCCCN(C)C(=O)Cc1cccn1-c1cccc(Cl)c1 | inactive: -1.87%
COc1ccc(-c2cnc3[nH]cc(CC(=O)NC4CCC(O)CC4)c3c2)cc1 (configuration not stated) | inactive: 5.54% [at 57.5 µM]
O=C(NC[C@H]1OC[C@@H](NCc2ncc[nH]2)[C@@H]1O)C1CCCC1 | inactive: 10.7% [at 57.5 µM]
OCc1ccc(CN2CC[C@@H](c3ccc4ccccc4c3)[C@H](O)C2)o1 | inactive: 4.83%
O=C(Cc1c[nH]c2ncc(-c3ccccc3)cc12)NCCc1ccccc1 | inactive: 1.88% [at 57.5 µM]
Cc1ccc(C(=O)NC2CCN(c3cn[nH]c(=O)c3)CC2)cc1C | inactive: 5.44%
O=C(C[C@@H]1CCNC[C@@H]1Cc1cc(CC2CCCCC2)on1)NC1CC1 | inactive: -0.0742% [at 57.5 µM]
c1cc(CN2CCNc3cc(-c4ccsc4)ncc3C2)ccn1 | inactive: 6.87% [at 57.5 µM]
COc1cccc(NC(=O)O[C@@H]2CC[C@]3(C)C(CC[C@@H](O)[C@H]3CC(=O)N3CCCC3)[C@]2(C)CO)c1 (some centres not stated) | inactive: -0.329%
OC(c1cccc(C(F)(F)F)c1)c1nc(Nc2cccnc2)n[nH]1 (configuration not stated) | inactive: 0.817% [at 57.5 µM]
Cc1ccc(NC(=O)Cn2c(-c3ccc(F)cc3)nc(C)c(CCO)c2=O)cc1Cl | inactive: 2.42%
O=C1N(C2CCCCC2)C[C@H]2CN(Cc3cccc(Cl)c3)CCN12 | inactive: 0.0117% [at 57.5 µM]
Cc1cc(=O)n(CC(=O)Nc2ccc(N(C)C)cc2)c(-c2ccc(Cl)cc2)n1 | inactive: 7.34%
O=C1Nc2ccc(-c3ccccc3F)cc2C(=O)N2C[C@@H](NS(=O)(=O)c3ccc(F)cc3)C[C@@H]12 | inactive: 2.41%
Cc1ccccc1NC(=O)c1cnc2c(c1)N(Cc1ccccc1)CCC2 | inactive: 4.53% [at 57.5 µM]
Fc1ccc(CNc2cc3c(cn2)CN(Cc2ccncc2)CCN3)cc1 | inactive: 3.97% [at 57.5 µM]

Structure (SMILES) | activity change, negative = inhibition
Cc1noc(C)c1S(=O)(=O)N1CC(c2noc(C3CCCN3C)n2)C1 (configuration not stated) | inactive: -1.35%
O=C(Nc1ccc([C@H]2OCC(=O)N(C3CCOCC3)[C@@H]2CO)cc1)c1cnccn1 | inactive: 10.3% [at 57.5 µM]
CC(C)c1noc([C@@H]2C[C@H](NC(=O)Nc3ccc(F)cc3)CN2C)n1 | inactive: -1.13% [at 57.5 µM]
CN1CCC(N2C[C@@H]3C[C@H]2C(=O)N(CC2CC2)c2ccccc2O3)CC1 | inactive: 0.475% [at 57.5 µM]
N[C@H]1CN(C(=O)c2sccc2Cl)C[C@@H]1C1CC1 | inactive: -1.46%
C[C@]1(CO)[C@H]2Cc3sc(NC(=O)c4ccnc(Cl)c4)nc3[C@@H](CC(=O)NCc3ccco3)[C@]2(C)CC[C@H]1O | inactive: 2.38%
COc1ccc(F)c(-c2nc(CN(C)C(C)c3cccs3)c(C)o2)c1 (configuration not stated) | inactive: -1.88%
COCC(=O)N[C@H]1CC[C@]2(C)CC[C@@H](C(C)C(=O)NC3CC3)[C@H](O)[C@H]2[C@@H]1C (some centres not stated) | inactive: 0.573% [at 57.5 µM]
Cc1cccc(CC(=O)N2CCC(n3cc(-c4nc(-c5ccccc5)no4)nn3)CC2)c1 | inactive: -0.561%
CCCc1ccc2oc(C(=O)N(CC)Cc3ccncc3)c(C)c2c1 | inactive: 2.74%
Fc1ccc(-c2nnc3ccc(NCCc4ccccn4)nn23)nc1 | inactive: 49.6% [at 57.5 µM]
O=C1CCCN1CCCN1C(=O)[C@@H]2C[C@@H](O)CN2C2(CN(C3CCC(F)(F)CC3)C2)C1=O | inactive: 0.305%
Cc1ccc(C(=O)NC2CCCN(c3cc(N(C)C)ncn3)C2)s1 (configuration not stated) | inactive: -1.15%
C#CCNC(=O)CC[C@H]1CNC(=O)[C@@H]2[C@@H](CCN2Cc2ccc(C(F)(F)F)cc2)N1C | inactive: 0.773%
CC1(CCCCc2ccccc2)COc2ccc(C(=O)NCc3cnccn3)cc2N1 (configuration not stated) | inactive: 1.37% [at 57.5 µM]
CN(C)CCNC(=O)Cc1c[nH]c2ncc(-c3ccccc3)cc12 | inactive: 0.849% [at 57.5 µM]
Cc1ccc(CN2CCC(Oc3ccc4ncccc4c3)(C(=O)O)CC2)o1 | inactive: 7.47%
O=C(N[C@H]1C[C@H]2C(=O)NC[C@@H](CCC(=O)N3CCCCC3)N2C1)c1ccco1 | inactive: 9.56% [at 57.5 µM]
O=C1CCN(S(=O)(=O)c2ccccc2)CCCN(C2CCCCCC2)CCN1 | inactive: -0.0766%
O=C(Nc1ccccc1)O[C@@H]1CO[C@H]2[C@@H]1OC[C@@H]2NCc1ccccc1 | inactive: -0.569% [at 57.5 µM]
Cc1nc2ccc(C(=O)N3C[C@@H](CN4CCCCC4)[C@@H](CO)C3)cc2s1 | inactive: -1.06%
c1cncc(-c2nc3c(c(NCc4ccccc4-n4ccnc4)n2)CNC3)c1 | inactive: 55.4%
COCCC(=O)N1CC[C@H](c2nc3ccccc3o2)C1 | inactive: -0.767% [at 76.7 µM]
CCn1cc(S(=O)(=O)N2CCC3(CC2)CN(Cc2ccc(OC)cc2)C3=O)cn1 | inactive: 2.84%
Cc1[nH]cnc1CN1CCNc2cc(Nc3ccccc3)ncc2C1 | inactive: 12.8% [at 57.5 µM]
